Here are results for six molecules from US20240376194A1 (WUXI BIOLOGICS IRELAND, published 2024).

Positions count from the first letter of the chain named.

T1: full length human D3 on WT115-293F.hPro1.2E5 cells (human, UniProt Q9NYJ7 27-618)
T1 construct: whole, on cells; Isoform printed as Q9NYJ7-1; also called human D3 expressing cell
T1 sequence (looked up): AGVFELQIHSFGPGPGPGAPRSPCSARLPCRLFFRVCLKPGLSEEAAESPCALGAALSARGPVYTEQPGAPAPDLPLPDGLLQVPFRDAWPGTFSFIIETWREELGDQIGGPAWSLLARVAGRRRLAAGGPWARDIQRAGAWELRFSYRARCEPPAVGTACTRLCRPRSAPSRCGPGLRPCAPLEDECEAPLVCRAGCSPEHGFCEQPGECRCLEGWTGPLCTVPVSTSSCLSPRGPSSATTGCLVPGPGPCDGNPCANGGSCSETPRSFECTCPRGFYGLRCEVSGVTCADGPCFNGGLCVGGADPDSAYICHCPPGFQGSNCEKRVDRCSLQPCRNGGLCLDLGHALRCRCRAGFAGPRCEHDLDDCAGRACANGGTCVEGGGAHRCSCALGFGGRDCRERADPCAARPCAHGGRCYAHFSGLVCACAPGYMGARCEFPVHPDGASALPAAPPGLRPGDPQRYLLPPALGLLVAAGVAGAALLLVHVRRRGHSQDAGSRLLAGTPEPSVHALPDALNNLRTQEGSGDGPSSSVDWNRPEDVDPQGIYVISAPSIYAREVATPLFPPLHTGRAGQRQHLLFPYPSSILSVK

T2: WT115-MBP-mPro1.ECD.hFc (mouse, UniProt O88516 33-490)
T2 construct: extracellular domain; Made in Expi293 cells; also called mouse D3; mouse D3 protein; not shown: MBP tag at the N-terminus; human Fc tag at the C-terminus
T2 sequence (looked up): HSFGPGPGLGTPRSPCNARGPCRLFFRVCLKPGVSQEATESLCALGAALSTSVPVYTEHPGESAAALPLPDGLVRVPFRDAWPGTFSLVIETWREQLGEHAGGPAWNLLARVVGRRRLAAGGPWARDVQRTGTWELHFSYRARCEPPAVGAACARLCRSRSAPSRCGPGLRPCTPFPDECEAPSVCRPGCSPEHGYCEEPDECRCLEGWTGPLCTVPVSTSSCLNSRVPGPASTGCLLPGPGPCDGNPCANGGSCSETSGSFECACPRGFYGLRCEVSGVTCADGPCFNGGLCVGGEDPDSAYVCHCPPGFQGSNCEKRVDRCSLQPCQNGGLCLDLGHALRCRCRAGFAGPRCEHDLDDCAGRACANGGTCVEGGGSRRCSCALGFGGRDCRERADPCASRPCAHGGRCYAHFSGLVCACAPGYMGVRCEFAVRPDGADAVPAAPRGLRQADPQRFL

T3: WT115-hPro1.ECD.His (human, UniProt Q9NYJ7 27-492)
T3 construct: extracellular domain; Bought protein; also called human D3 ECD protein; human D3-ECD protein; not shown: His tag
T3 sequence (looked up): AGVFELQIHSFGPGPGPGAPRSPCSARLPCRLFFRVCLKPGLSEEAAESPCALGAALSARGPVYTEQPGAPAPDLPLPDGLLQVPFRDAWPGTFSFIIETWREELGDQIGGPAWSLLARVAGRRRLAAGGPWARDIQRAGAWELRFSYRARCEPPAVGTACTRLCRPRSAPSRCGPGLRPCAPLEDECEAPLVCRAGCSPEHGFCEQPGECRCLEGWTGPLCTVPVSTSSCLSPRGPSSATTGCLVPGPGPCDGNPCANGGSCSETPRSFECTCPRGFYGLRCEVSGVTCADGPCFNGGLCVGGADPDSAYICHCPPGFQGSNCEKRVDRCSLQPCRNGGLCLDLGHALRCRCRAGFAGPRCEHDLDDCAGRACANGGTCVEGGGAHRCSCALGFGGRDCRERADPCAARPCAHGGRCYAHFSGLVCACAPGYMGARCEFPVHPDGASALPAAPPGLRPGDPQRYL

B1: WT1156-P3R2-1H6-uIgG1 (Fc fusion)
chain: QVQLVESGGGLVQAGGSLRLSCAASGRTFRSYAMGWFRQAPGKEREFVAAISWIGGGTYYADSVKGRFTISGDNAKNTLYLQMNSLKPEDTAVYYCAASSLLRHGHMFEESDYWGQGTQVTVSS[gap - human IgG1 Fc]
B2: WT1156-P8R2-1H1-uIgG1 (Fc fusion)
chain: EVDLVESGGGLVQPGGSLRLSCAASGRTASRYSMVWFRQAPGQEREFVGGNSAHDGRSAYTDSVKGRFTFSRDNAKNTGYLQMNSLRPDDTAVYYCAADTNPPYGPPWSTPSEYEYWGHGTQVTVSS[gap - human IgG1 Fc]
B3: WT1156-P3R2-1C9-uIgG1 (Fc fusion)
chain: B2 chain with E1Q, D3Q, P14A, A29T, T61A, N84S
B4: WT1156-P3R2-1C2-z102-uIgG1 (Fc fusion)
chain: EVQLVESGGGLVQPGGSLRLSCAASGLTFSTATVGWFRQAPGKGRELIAAIPAYYSTYYASSVKGRFTISRDNAKNSVYLQMNSLRAEDTAVYYCAADDTPSPSRSPFYKHRGQGTMVTVSS[gap - human IgG1 Fc]
B5: WT1156-P3R2-1C2-z109-uIgG1 (Fc fusion)
chain: B4 chain with I48V, V78L, A87P
B6: WT1156-P3R2-1H6-z100-uIgG1 (Fc fusion)
chain: B1 chain with L11V, A14P, A75S, K87R, P88A, Q119M

The first test concerns the target T4, full length cynomolgus D3 on WT115-Flpin293.cPro1.pool cells (cynomolgus monkey).
T4 construct: whole, on cells; The paragraph on the cell pool prints none; also called cynomolgus monkey D3 expressing cell; Cyno D3
Briefly: FACS on WT115-Flpin293.cPro1.pool cells. As for the experimental part: (§1) WT115-Flpin293.cPro1.pool cells (1×10⁵ cells/well) were incubated with various concentrations of antibodies (4-fold serially diluted from 10 nM to 0.00061 nM) at 4° C. for 1 hour. After washing with 1×PBS/1% BSA, a secondary antibody, Alexa Fluor 647-labeled goat anti-human IgG (1:150, Jackson ImmunoResearch, 109-605-098), as added and incubated with cells at 4° C. in dark for 1 hour. Anti-human D3 antibodies WT115-BMIK1 and WT115-BMK2 were used as positive controls. Human IgG1 isotype antibody was used as a negative control. The cells were washed with 1×PBS/1% BSA and resuspended in 4% paraformaldehyde, and incubated with cells at 4° C. in dark for 0.5 hour. Then change the buffer with 1×PBS/1% BSA and filter the cells. MFI of the cells was measured by a flow cytometer and analyzed by FlowJo.
The molecule B1 registered an EC50 of 0.25 nM.
Molecule B2 yielded a 50% effective concentration (EC50) of 0.21 nM.
Same read-out and setting: the result for B3 reads 0.07 nM.

A further test addresses T1, full length human D3 on …. Briefly: FACS on WT115-293F.hPro1.2E5 cells (FIG. 2b). As for the experimental part:
(§2) Anti-human D3 antibodies WT115-BMK1 and WT115-BMK2 were used as positive controls. Human IgG1 isotype antibody was used as a negative control. The cells were washed and resuspended in 4% paraformaldehyde. MFI of the cells was measured by a flow cytometer and analyzed by FlowJo.
In the case of B4, the EC50 worked out at 0.088 nM.
On the same count and under the same terms, the result for B5 reads 0.14 nM.

Another test deals with T1, full length human D3 on …. Put plainly: cell-based or functional assay.
Consider B5, for which the “Internalization (EC50, nM)” value was found to be 12.2 nM.

The target in the next test is T2, WT115-MBP-mPro1.ECD.hFc. Briefly: ELISA on immobilized WT115-MBP-mPro1.ECD.hFc (FIG. 4b). As to the method: Plates were pre-coated with 1 μg/mL, 100 μL per well of WT115-MBP-mPro1.ECD.hFc at 4° C. overnight. The antigen was diluted in coating buffer from stock solution. Next day, the plates were washed using 1×PBST for one time, and blocking was done by adding 200 μL of 1×PBS/2% BSA. Antibodies were serially diluted (5-fold serially diluted from 20 nM to 0.000256 nM) in blocking buffer. After 1-hour blocking, the plates were washed using 1×PBST for 3 times, and then the antibody were added to the plates and incubated at ambient temperature for 1 hour. […] WT114-BMK1-Biotin antibody was used as a negative control. Binding of antibodies to the immobilized mouse D3 was detected by HRP-labeled secondary antibody (Invitrogen, SNN1004), which was diluted in 1×PBS/2% BSA at a concentration of 1:30000. After incubation, the plates were washed using 1×PBST for 6 times. The color was developed by dispensing 100 μL of TMB substrate, and then reaction was stopped by adding 100 μL of 2M HCl. Absorbance was read at 450 nm and 540 nm using a microplate spectrophotometer. All samples were tested in duplicate.
B4 yielded an EC50 of 0.0067 nM.
The same measure, in the same setting: then B5, with 0.0075 nM.

The next test concerns the target T3, WT115-hPro1.ECD.His. Briefly: ELISA on immobilized WT115-hPro1.ECD.His. As for the experimental part:
Plates were pre-coated with 1 μg/mL, 100 μL per well of WT115-hPro1.ECD.His at 4° C. overnight. The antigen was diluted in coating buffer (0.02 M Na₂CO₃ and 0.18 M NaHCO₃, pH9.2) from stock solution. Next day, the plates were washed using 1×PBST (PBS containing 0.05% tween-20) for one time, and blocking was done by adding 200 μL of 1×PBS/2% BSA. […] After 1-hour blocking, the plates were washed using 1×PBST for 3 times, and then the antibodies were added to the plates and incubated at ambient temperature for 1 hour. Binding of antibodies to the immobilized human D3 was detected by HRP-labeled secondary antibody (Bethyl, A80-304P), which was diluted in 1×PBS/2% BSA at a concentration of 1:10000. After incubation, the plates were washed using 1×PBST for 6 times. The color was developed by dispensing 100 μL of TMB substrate, and then reaction was stopped by adding 100 μL of 2M HCl. Absorbance was read at 450 nm and 540 nm using a microplate spectrophotometer. Anti-human D3 antibodies WT115-BMK1 and WT115-BMK2 were used as positive controls. Human IgG1 isotype antibody was used as a negative control. All samples were tested in duplicate.
The molecule B1 came in with an EC50 of 0.014 nM.
On the same count and under the same terms, the result for B2 reads 0.021 nM; that for B3, 0.026 nM.

The next test deals with T3, WT115-hPro1.ECD.His. Briefly: SPR Biacore T200, antibody captured on anti-human IgG Fc chip, WT115-hPro1.ECD.His as analyte. As for the experimental part: The binding affinity of anti-D3 antibodies to human D3 ECD protein was detected by SPR assay using Biacore T200. Each antibody tested was captured on an anti-human IgG Fc antibody immobilized CM5 sensor chip (GE). WT115-hPro1.ECD.His at different concentrations were injected over the sensor chip at a flow rate of 30 μl/min for an association phase of 180 s, followed by 3600 s dissociation. The chip was regenerated by 10 mM glycine (pH 1.5) after each binding cycle.
The other experimental data was fitted by 1:1 model using Langmiur analysis. The sensorgrams of blank surface and buffer channel were subtracted from the test sensorgrams. Molecular weight of 34 KDa was used to calculate the molar concentration of analyte.
Consider B1, for which the Kd is < 0.0926 nM, the koff was < 1e-05 s⁻¹ and the kon turned out to be 108000 M⁻¹ s⁻¹.
The corresponding values for B6 are 0.217 nM, 1.74e-05 s⁻¹ and 80200 M⁻¹ s⁻¹.
On the same counts, the results for B2 are 0.257 nM, 5.14e-05 s⁻¹ and 200000 M⁻¹ s⁻¹.
The corresponding values for B3 are 1.32 nM, 0.000238 s⁻¹ and 180000 M⁻¹ s⁻¹.
B4: the affinity, expressed as Kd, was 0.0977 nM; the koff came out at 1.78e-05 s⁻¹; the kon is 183000 M⁻¹ s⁻¹.
The corresponding values for B5 are 0.165 nM, 3.06e-05 s⁻¹ and 185000 M⁻¹ s⁻¹.

A further test addresses T1, full length human D3 on …. Put plainly: FACS on WT115-293F.hPro1.2E5 cells. As to the method: as §2
Turning to B1, the EC50 was determined as 0.52 nM.
With B2, the EC50 came out at 0.45 nM.
On the same count and under the same terms, then B3, with 0.25 nM.

Another test has as its target T1, full length human D3 on …. Briefly: cell-based or functional assay. The source holds these as a separate data set.
On to B1, for which the “Internalization EC50” value is 0.95 nM.
Still for that read-out and setting: then B2, with 0.47 nM.
Same read-out and setting: the result for B3 reads 0.46 nM.

Another test has as its target T4, full length cynomolgus D3 on …. Put plainly: FACS on WT115-Flpin293.cPro1.pool cells (FIG. 3b). As for the experimental part: as §1
Consider B6, for which the EC50 worked out at 0.42 nM.
Still for that read-out and setting: then B4, with 0.083 nM; and B5, with 0.096 nM.
